{"source": "the supplement of paper PMC8728848", "binders": {"B1": {"name": "PkBDPgamma (Plasmodium knowlesi) (protein)", "chain": "SAINQIFLQNNVMDKCNDKRKRGERDWDCPTEKDVCIPDRRYQLCMMEITNLVDTDTHFHSDIIFRKSYSRRRLIYDVGGRGDLLLKKYNNVYSEDLCKDIKWSLQDFGDIIMGTDMEGIGYSLVVQNNLRSIFGTGTSAELDRKKWWNDHKKDIWKAMILSVKEKNRYSAWNCKEDVQIKVEPQIYRWIREWGRDYMSEFREQRRKLNEKCEDKLYYSTMLICTLPPCNNACKSYDEWITGKKKQWDVLSTKFSSVKKAQKIETENIARAYDILKQELNGFNEVTFENEINKRDKLYNYFCVCIVQEARKNTQENVKNVGSGVESKAPSSNPINEAVKSSSGEGKVQEDSAHRSVNEGEGKSSTNEADPGSQPGAAASGGGSGGGTGGGVDLAPQMLRELQETNAALQDVRELLRQQVKEITFLKNTVMECDACGGPLDRNLPPLAPLGPTGGWSHPQFEK"}}, "assay_in_all_cases": "glycan array binding signal (z-score within array); higher = stronger binding", "conditions_in_all_cases": "glycan notation: IUPAC condensed, linker removed", "key": {"Fuc(a1-2)Gal": {"target": "Fuc(a1-2)Gal", "how_it_was_run": "(§1)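 Negative Z-scores can be read as non-binding. The Z-score is calculated within each array and then averaged across arrays of one protein sequence at different concentrations or buffers and across linkers. Arrays, 3228 in all, were curated from the Consortium for Functional Glycomics database and kept only where the protein sequence was available.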"}, "Fuc(a1-2)Gal(b1-3)GalNAc": {"target": "Fuc(a1-2)Gal(b1-3)GalNAc", "how_it_was_run": "as §1"}, "[1]": {"target": "Fuc(a1-2)Gal(b1-3)GalNAc(a1-3)[Fuc(a1-2)]Gal(b1-4)Glc", "how_it_was_run": "as §1"}, "[2]": {"target": "Fuc(a1-2)Gal(b1-3)GalNAc(a1-3)[Fuc(a1-2)]Gal(b1-4)GlcNAc", "how_it_was_run": "as §1"}, "[3]": {"target": "Fuc(a1-2)Gal(b1-3)GalNAc(b1-3)Gal", "how_it_was_run": "as §1"}, "[4]": {"target": "Fuc(a1-2)Gal(b1-3)GalNAc(b1-3)Gal(a1-4)Gal(b1-4)Glc", "how_it_was_run": "as §1"}, "[5]": {"target": "Fuc(a1-2)Gal(b1-3)GalNAc(b1-4)[Neu5Ac(a2-3)]Gal(b1-4)Glc", "how_it_was_run": "as §1"}, "Fuc(a1-2)Gal(b1-3)GlcNAc": {"target": "Fuc(a1-2)Gal(b1-3)GlcNAc", "how_it_was_run": "as §1"}, "[6]": {"target": "Fuc(a1-2)Gal(b1-3)GlcNAc(b1-2)Man(a1-3)[Fuc(a1-2)Gal(b1-3)GlcNAc(b1-2)Man(a1-6)]Man(b1-4)GlcNAc(b1-4)GlcNAc", "how_it_was_run": "as §1"}, "[7]": {"target": "Fuc(a1-2)Gal(b1-3)GlcNAc(b1-2)Man(a1-3)[Fuc(a1-2)Gal(b1-3)GlcNAc(b1-2)Man(a1-6)]Man(b1-4)GlcNAc(b1-4)[Fuc(a1-6)]GlcNAc", "how_it_was_run": "as §1"}, "[8]": {"target": "Fuc(a1-2)Gal(b1-3)GlcNAc(b1-3)Gal(b1-4)Glc", "how_it_was_run": "as §1"}, "[9]": {"target": "Fuc(a1-2)Gal(b1-3)GlcNAc(b1-3)GalNAc", "how_it_was_run": "as §1"}, "[10]": {"target": "Fuc(a1-2)Gal(b1-3)GlcNAc(b1-3)[Fuc(a1-2)Gal(b1-3)GlcNAc(b1-6)]GalNAc", "how_it_was_run": "as §1"}, "[11]": {"target": "Fuc(a1-2)Gal(b1-3)GlcNAc(b1-3)[Gal(b1-4)GlcNAc(b1-6)]Gal(b1-4)Glc", "how_it_was_run": "as §1"}, "[12]": {"target": "Fuc(a1-2)Gal(b1-3)GlcNAc(b1-3)[Neu5Ac(a2-6)Gal(b1-4)GlcNAc(b1-6)]Gal(b1-4)Glc", "how_it_was_run": "as §1"}, "[13]": {"target": "Fuc(a1-2)Gal(b1-3)GlcNAc6S", "how_it_was_run": "as §1"}, "[14]": {"target": "Fuc(a1-2)Gal(b1-3)[Fuc(a1-4)]GlcNAc", "how_it_was_run": "as §1"}, "[15]": {"target": "Fuc(a1-2)Gal(b1-3)[Fuc(a1-4)]GlcNAc(b1-2)Man(a1-3)[Fuc(a1-2)Gal(b1-3)[Fuc(a1-4)]GlcNAc(b1-2)Man(a1-3)]Man(b1-4)GlcNAc(b1-4)GlcNAc", "how_it_was_run": "as §1"}, "[16]": {"target": "Fuc(a1-2)Gal(b1-3)[Fuc(a1-4)]GlcNAc(b1-2)Man(a1-3)[Fuc(a1-2)Gal(b1-3)[Fuc(a1-4)]GlcNAc(b1-2)Man(a1-6)]Man(b1-4)GlcNAc(b1-4)[Fuc(a1-6)]GlcNAc(b1-4)[Fuc(a1-6)]GlcNAc", "how_it_was_run": "as §1"}, "[17]": {"target": "Fuc(a1-2)Gal(b1-3)[Fuc(a1-4)]GlcNAc(b1-3)[Fuc(a1-3)[Gal(b1-4)]GlcNAc(b1-6)]Gal(b1-4)Glc", "how_it_was_run": "as §1"}, "[18]": {"target": "Fuc(a1-2)Gal(b1-3)[Fuc(a1-4)]GlcNAc(b1-3)[Gal(b1-4)GlcNAc(b1-6)]Gal(b1-4)Glc", "how_it_was_run": "as §1"}, "[19]": {"target": "Fuc(a1-2)Gal(b1-4)Fuc(a1-3)]GlcNAc(b1-2)Man(a1-3)[Fuc(a1-2)Gal(b1-4)[Fuc(a1-3)]GlcNAc(b1-2)Man(a1-6)]Man(b1-4)GlcNAc(b1-4)GlcNAc", "how_it_was_run": "as §1"}, "Fuc(a1-2)Gal(b1-4)Glc": {"target": "Fuc(a1-2)Gal(b1-4)Glc", "how_it_was_run": "as §1"}, "Fuc(a1-2)Gal(b1-4)Glc6S": {"target": "Fuc(a1-2)Gal(b1-4)Glc6S", "how_it_was_run": "as §1"}, "Fuc(a1-2)Gal(b1-4)GlcNAc": {"target": "Fuc(a1-2)Gal(b1-4)GlcNAc", "how_it_was_run": "as §1"}, "[20]": {"target": "Fuc(a1-2)Gal(b1-4)GlcNAc(b1-2)Man", "how_it_was_run": "as §1"}, "[21]": {"target": "Fuc(a1-2)Gal(b1-4)GlcNAc(b1-2)Man(a1-3)[Fuc(a1-2)Gal(b1-4)GlcNAc(b1-2)Man(a1-6)]Man(b1-4)GlcNAc(b1-4)GlcNAc", "how_it_was_run": "as §1"}, "[22]": {"target": "Fuc(a1-2)Gal(b1-4)GlcNAc(b1-2)Man(a1-3)[Fuc(a1-2)Gal(b1-4)GlcNAc(b1-2)Man(a1-6)]Man(b1-4)GlcNAc(b1-4)[Fuc(a1-6)]GlcNAc", "how_it_was_run": "as §1"}, "[23]": {"target": "Fuc(a1-2)Gal(b1-4)GlcNAc(b1-2)[Fuc(a1-2)Gal(b1-4)GlcNAc(b1-4)]Man(a1-3)[Fuc(a1-2)Gal(b1-4)GlcNAc(b1-2)Man(a1-6)]Man(b1-4)GlcNAc(b1-4)GlcNAc", "how_it_was_run": "as §1"}, "[24]": {"target": "Fuc(a1-2)Gal(b1-4)GlcNAc(b1-3)Gal(b1-4)GlcNAc", "how_it_was_run": "as §1"}}, "note": "Some of the results follow."}
{"binder": "B1", "values": [{"measurement": "glycan array binding signal (z-score)", "setting": "Fuc(a1-2)Gal", "result": 0.205}, {"measurement": "glycan array binding signal (z-score)", "setting": "Fuc(a1-2)Gal(b1-3)GalNAc", "result": -0.399}, {"measurement": "glycan array binding signal (z-score)", "setting": "[1]", "result": -0.318}, {"measurement": "glycan array binding signal (z-score)", "setting": "[2]", "result": -0.282}, {"measurement": "glycan array binding signal (z-score)", "setting": "[3]", "result": -0.581}, {"measurement": "glycan array binding signal (z-score)", "setting": "[4]", "result": -0.02}, {"measurement": "glycan array binding signal (z-score)", "setting": "[5]", "result": -0.088}, {"measurement": "glycan array binding signal (z-score)", "setting": "Fuc(a1-2)Gal(b1-3)GlcNAc", "result": -0.138}, {"measurement": "glycan array binding signal (z-score)", "setting": "[6]", "result": 0.35}, {"measurement": "glycan array binding signal (z-score)", "setting": "[7]", "result": 0.201}, {"measurement": "glycan array binding signal (z-score)", "setting": "[8]", "result": -0.455}, {"measurement": "glycan array binding signal (z-score)", "setting": "[9]", "result": 0.928}, {"measurement": "glycan array binding signal (z-score)", "setting": "[10]", "result": 0.3}, {"measurement": "glycan array binding signal (z-score)", "setting": "[11]", "result": -0.355}, {"measurement": "glycan array binding signal (z-score)", "setting": "[12]", "result": -0.463}, {"measurement": "glycan array binding signal (z-score)", "setting": "[13]", "result": -0.604}, {"measurement": "glycan array binding signal (z-score)", "setting": "[14]", "result": 0.064}, {"measurement": "glycan array binding signal (z-score)", "setting": "[15]", "result": 0.339}, {"measurement": "glycan array binding signal (z-score)", "setting": "[16]", "result": -0.387}, {"measurement": "glycan array binding signal (z-score)", "setting": "[17]", "result": -0.247}, {"measurement": "glycan array binding signal (z-score)", "setting": "[18]", "result": -0.063}, {"measurement": "glycan array binding signal (z-score)", "setting": "[19]", "result": 0.212}, {"measurement": "glycan array binding signal (z-score)", "setting": "Fuc(a1-2)Gal(b1-4)Glc", "result": -0.028}, {"measurement": "glycan array binding signal (z-score)", "setting": "Fuc(a1-2)Gal(b1-4)Glc6S", "result": -0.188}, {"measurement": "glycan array binding signal (z-score)", "setting": "Fuc(a1-2)Gal(b1-4)GlcNAc", "result": -0.067}, {"measurement": "glycan array binding signal (z-score)", "setting": "[20]", "result": 0.275}, {"measurement": "glycan array binding signal (z-score)", "setting": "[21]", "result": -0.211}, {"measurement": "glycan array binding signal (z-score)", "setting": "[22]", "result": -0.084}, {"measurement": "glycan array binding signal (z-score)", "setting": "[23]", "result": -0.391}, {"measurement": "glycan array binding signal (z-score)", "setting": "[24]", "result": 0.178}]}
